Data taken from the supplement of paper PMC10126150.
Values marked as one replicate rest on one cluster of the flow cell; about a third of the high ones do not repeat.

System: ATP
Assay: switch fluorescence ratio, 500 uM ATP over buffer (Cy3 cluster intensity, sum of 5 cycles each) (fold (ratio)); higher = stronger signal-on switching upon ATP binding; sequences stand for … in TCGTCGGCAGCGTCAGATGTGTATAAGAGACAGTTTTTTTTTTTTTTTTTTTTTTTTT…TC
Details: aptamer strand: ATP DNA aptamer (quencher-CACCTGGGGGAGTATTGCGGAGGAAGG + anchor), 100 nM annealed; ATP concentration: 500 uM; one replicate
Summary of the method: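 Imaging in selection buffer was followed by imaging after 15 min with 500 uM ATP at 22 °C, for Cy3-labelled switching-strand clusters annealed to 100 nM quencher-labelled ATP aptamer on a modified Illumina MiSeq flow-cell. Five of these buffer/ATP cycles ran, separated by NaOH stripping and re-annealing. The fluorescence ratio per cluster is summed target-cycle over summed buffer-cycle Cy3 intensity, averaged per switch-domain sequence; clusters outside 100-1000 RFU were removed.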
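Further: ATP exposure 15 min at 22 °C before imaging.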

Sequence | switch fluorescence ratio
CTGCTAGCTC | 1.27
TCGTAGTACG | 0.983
TCATGGAGAA | 1
GCTGTGTGAA | 0.963
CGACCGCGAG | 1.2
GGGTTCCAGC | 1.01
GGTTGCTAC | 1.02
AGCTGCTTCC | 1.81
AGACCAACAG | 1.01
TCTTGACA | 0.955
GATCCCTTT | 0.985
AGGATAGAAC | 1
CACCTATATT | 1.05
GGCCCGAAAC | 1.08
TATCCATTTT | 1
CTCTAAGCTT | 1.09
TATGACTGCA | 1.03
TTAGTCCAAC | 0.995
CAAATAATCA | 1.02
TAATCCGGGT | 1.08
GCTGATTTAA | 0.977
ACAGGTACTT | 1.07
TGAGCCGTTT | 1.04
TCATCCGTCA | 2.64
AATTTATGGT | 0.992
TACCTCTGAA | 1.03

Sequence | switch fluorescence ratio
CATCTATTGT | 1
GCTTCTAGAT | 0.997
TTGGCGAAGC | 1.02
CATGTGATCA | 1.03
GTCTTATGCT | 0.993
CCCGTTCGTC | 1.02
AAAACGGACG | 1.06
CCCACCCCCC | 1.48
ACGGTGAATA | 1.05
CCCTATACGG | 1.17
AAGTCACCAA | 1.13
TATTGCGGAT | 1.05
AAGGTAGCGG | 0.968
TGGCCGCTCC | 1.29
CCGTGTGTTA | 1.03
TGAATTCGTT | 1.03
AAACATGCGG | 1
CACTCACGAA | 1.29
CTTAAAGGTT | 1.01
TTGGTCTGTA | 0.983
CCACTCGTGG | 1.03
GGTTTCAAA | 1.01
TTTGGCCCTC | 1.03
CCAACGGGGC | 1.37
TATTTATCCA | 1.02
CTATAGATCA | 0.948

Sequence | switch fluorescence ratio
GAGGAAAGCT | 1.23
TCATCACTAT | 1.02
ATTGTTTCTT | 1.01
TCAAAGGACG | 1.02
TTTTCCACTG | 1.03
GGGCAGGTGC | 0.991
TTCGACGAGT | 1.02
GGCCTTTAGT | 1.02
GTCAGATTGC | 0.975
CCTCGCTGCG | 1.53
CTCCCTGAAT | 1.08
TTTCCAGTCG | 0.984
TAGGAGCAAC | 1.62
CCATGGCCCT | 0.977
ATGGACGTTA | 1.11
ATCCGGGAGT | 0.982
AATGGGGCGT | 0.982
AGATTGACCG | 1.02
TTGCAACGTC | 0.983
AGCGTCAAT | 1.05
TTCATAAGCC | 0.986
TACAACAATG | 1.07
TAACGGTTCG | 0.986
TGATAGGATG | 0.965
TCGGATGTAC | 1.14
AGGGAGAATC | 0.992

Sequence | switch fluorescence ratio
CGATGTGGCG | 0.934
TGGCGATTCG | 0.986
ATTCGACGTA | 0.923
GCATAAGGTC | 1.03
GGGCATCGA | 0.993
CCTAGTGAA | 1
TTGTGTGGA | 1.04
TCCGTGGAAT | 1.01
CCACCCGGGT | 1.06
TATTAGTCAC | 1
AATTGGGACT | 0.952
TGGTGAGTAC | 0.809
GGACAATGGA | 1.04
AATGTATTTA | 0.998
ATTTCTTCTA | 1.02
CGCTTTATGG | 1.09
CCTAGCGC | 1.03
GGTAGCTCTC | 1.06
TACGGATTGA | 1.03
TTCGTAGAT | 1.03
GGTCCCCCAT | 1.07
GACAGCTAAC | 2.1
GGGGTGTAAA | 1.04
AAAGAGGGAA | 1.01
CGCCTGTGTT | 1.04
ATGAGCTAGG | 0.968

Sequence | switch fluorescence ratio
CACAGGCGCT | 1.01
TAGTTTTGT | 1.03
GTTTTAGTTA | 0.99
TTTCCCGGTA | 1.04
GGGCCGCTGT | 0.998
TACGCGGTGA | 1.08
CATCTTGATT | 0.955
TATTTATCGA | 0.989
ACCAGTCGAG | 0.993
AACGATAGCC | 1.07
CCTTTTACAG | 0.997
AGATAGTAGA | 1.01
CATATGTAGT | 0.964
CCTGATGTGG | 1.01
GGAGCACTTT | 1.07
TTTCTTTCCA | 0.967
TATATCTTAT | 1.01
AAACAGGACA | 1.02
TTGCAAGGG | 1.01
GGTGAGGGGC | 0.948
CACTTTATGT | 1.05
AATATCCGGC | 1.01
TACACTGAGG | 1.03
TAAACTTTGC | 1.38
TTATGTGGTC | 0.946
AAAGGGTCTC | 0.986

Sequence | switch fluorescence ratio
TGCAGGGAGC | 0.987
AAAATCGTGG | 0.984
ACCCCCGACC | 1.51
AGAGCGGGCC | 0.773
GAATCGGGC | 1.04
CTTCACTCAC | 1.26
CAAAATTAGT | 1.01
GAGTTGCTCT | 1.01
GACGATTGGC | 0.977
CACGAGTGCT | 0.989
GCTCAAATAT | 1.05
TGATTGGAGT | 0.972
CCATGGAAA | 0.972
CGGTTAGGCA | 0.986
CATAGCGACG | 1.02
GAGGTTCTGA | 0.971
TCTCATATAG | 0.975
ACTGTGCTCA | 0.956
CACATTCGAG | 0.981
AGTGCTCG | 0.993
ATGAAGAATC | 0.966
ATTTGAGGAC | 0.962
TCCATCGGCC | 1.08
